Laboratory results reported in PubChem BioAssay AID1745853 (National Center for Advancing Translational Sciences (NCATS), 2022).
Some of the results follow. Further columns of the screen follow, without active or inactive calls. Square brackets hold non-standard residues; d marks the D form. Peptide text beside a SMILES is read from it. Hyp = O=C(O)[CH]1C[CH](O)CN1; Phe(ol) = N[CH](CO)Cc1ccccc1; Iva = CC[C](C)(N)C(=O)O; Aib = CC(C)(N)C(=O)O

Tests used:
Test in all cases: Primary Screen for Target Class Profiling of Small Molecule Inhibitors of Methyltransferases
[1] = molecular target: Glycine N-methyltransferase (Homo sapiens) (UniProt Q14749); conditions: purified enzyme, MTase-Glo SAH luminescence; measured here: GNMT inhibition; at 40 µM; stronger effect = lower value
Method in brief: (§1)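 Each enzyme was assayed with SAM and its substrate. SAH formation detected by MTase-Glo luminescence; single-point 40 uM screen[…].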

[2] = molecular target: Guanidinoacetate N-methyltransferase (Homo sapiens) (UniProt Q14353); conditions: purified enzyme, MTase-Glo SAH luminescence; measured here: GAMT inhibition; at 40 µM; stronger effect = lower value
Method in brief: as §1

[3] = molecular target: Histamine N-methyltransferase (Homo sapiens) (UniProt P50135); conditions: purified enzyme, MTase-Glo SAH luminescence; measured here: HNMT inhibition; at 40 µM; stronger effect = lower value
Method in brief: as §1

[4] = molecular target: Nicotinamide N-methyltransferase (Homo sapiens) (UniProt P40261); conditions: purified enzyme, MTase-Glo SAH luminescence; measured here: NNMT inhibition; at 40 µM; stronger effect = lower value
Method in brief: as §1

[5] = molecular target: Phenylethanolamine N-methyltransferase (Homo sapiens) (UniProt P11086); conditions: purified enzyme, MTase-Glo SAH luminescence; measured here: PNMT inhibition; at 40 µM; stronger effect = lower value
Method in brief: as §1
% is set by controls: 0 for no effect and ±100 for the full control effect.

SMILES | activity change, negative = inhibition [1] [%] | activity change, negative = inhibition [2] [%] | activity change, negative = inhibition [3] [%] | activity change, negative = inhibition [4] [%] | activity change, negative = inhibition [5] [%]
CC/C(=C(\c1ccc(O)cc1)c1ccc(OCCNC)cc1)c1ccccc1 | 3.11 | 5.35 | -7.78 | -21 | 4.62
CS(=O)(=O)N1CCCOCCNC(=O)[C@@H]2CCC[C@@H]21 | -0.753 | -0.112 | 0.253 | 1.66 | -0.658
CN1CCN(Cc2nc(C3(O)CCN(Cc4ccccc4C(F)(F)F)CC3)cs2)CC1 | -1.66 | -2.89 | -4.72 | -4.02 | -16.2
CC(=O)N1CCN(C(=O)c2cnc(N)nc2-c2ccccc2)CC(O)C1 (stereo not given) | -0.341 | 1.66 | 1.4 | 0.144 | 8.98
O=C(Nc1cc(-c2ccccc2)nn1-c1ccccc1F)c1ccc([N+](=O)[O-])cc1 | 5.39 | -0.545 | 10.4 | -15.2 | -1.27
CCN(CC)CCNC(=O)c1cc2n(n1)CC(C)(C(=O)NC1CCCCC1)N(C)C2=O (stereo not given) | 7.6 | 1.29 | 7.56 | 12.5 | 7.17
COc1ccc(C)cc1NC(=O)C1CCCN(c2cn[nH]c(=O)c2)C1 (stereo not given) | -9.87 | -9.74 | -5.25 | -9.85 | -8.78
O=C(NCCc1ccccc1)N1CCn2cccc2C1Cc1ccccc1 (stereo not given) | 2.39 | 2.67 | -32.1 | -0.471 | -1.63
COc1cccc(NC(=O)CCc2nnc3n(Cc4ccc(F)cc4)c(=O)c4ccccc4n23)c1 | 2.29 | -0.144 | 1.02 | -4.1 | -3.17
CC(C)COc1ccc(CNC(=O)N(Cc2ccc(F)cc2)C2CCN(C)CC2)cc1 | 3.16 | 8.16 | 1.88 | -9.58 | 0.736
CS(=O)(=O)N1CCC(Oc2ccc(C(=O)NCCc3ccccn3)cc2Cl)CC1 | -2.34 | 0.74 | 0.348 | -2.02 | 3.63
CC(C)CNC(=O)c1ccc2c(=O)n(Cc3ccccc3)c3nn(CC(=O)NC(C)C)c(=O)n3c2c1 | 0.888 | 0 | 1.81 | -0.711 | -0.251
CCC(C)(NC(=O)C(CCC(N)=O)NC(=O)C1CC(O)CN1C(=O)C(C)(C)NC(=O)C(C)(C)NC(=O)C(CC(C)C)NC(=O)CNC(=O)C(NC(=O)C(C)(C)NC(=O)C(C)(C)NC(=O)C(C)(C)NC(=O)C(Cc1ccccc1)NC(C)=O)C(C)C)C(=O)N1CC(O)CC1C(=O)NC(C)(C)C(=O)NC(CO)Cc1ccccc1 (stereo not given) (Ac-F[Aib][Aib][Aib]VGL[Aib][Aib][Hyp]Q[Iva][Hyp][Aib][Phe(ol)]; configuration not given here) | -2.66 | 14.4 | 12.2 | 1.35 | -3.74
COC[C@@H]1CN(C(=O)c2ncccc2C)C[C@H]1C(N)=O | -0.148 | 3.59 | 3.07 | -0.159 | -6.14
CN(c1ccccc1CNc1nc(Nc2ccc3c(c2)CC(=O)N3)ncc1C(F)(F)F)S(C)(=O)=O | -7.49 | 11 | 2.94 | -53.7 | -0.255
O=C(Cn1nc2n(CCc3ccccc3)c(=O)c3ccccc3n2c1=O)Nc1cccc(Cl)c1 | 4.08 | 5.22 | 3.15 | 2.46 | 3.34
O=C1CCN(CC(O)C(F)(F)F)c2ccccc2CCN1Cc1ccccc1 (stereo not given) | -2.02 | -4.4 | 0.322 | -12.5 | -9.8
Cc1noc(C)c1CC(=O)N1CCCCCCNC(=O)[C@@H]2CCCC[C@@H]21 | -2.38 | -1.86 | 0.24 | -7.67 | -3.77

SMILES | activity change, negative = inhibition [1] [%] | activity change, negative = inhibition [2] [%] | activity change, negative = inhibition [3] [%] | activity change, negative = inhibition [4] [%] | activity change, negative = inhibition [5] [%]
COc1ccc(CCNC(=O)c2c(C)noc2-c2cc(OC)cc(OC)c2)cc1 | -0.743 | 0.987 | -0.898 | -2.62 | -3.37
Cc1ccc(CNC(=O)Cn2ccc3cc(S(=O)(=O)N4CCCCC4)ccc32)o1 | 1.03 | 4.83 | 3.6 | -0.106 | 1.97
NS(=O)(=O)c1cc2c(cc1Cl)NC(C1CC3C=CC1C3)NS2(=O)=O (stereo not given) | -2.66 | -4.28 | 6.57 | -16.1 | -10.4
CCCCN1C(=O)CC[C@H]2CN(C(=O)Cc3c[nH]c(=O)n(C)c3=O)CC[C@H]21 | -5.04 | -4.86 | -0.95 | -11 | 3.76
CCn1cc(C(=O)N2C[C@@H](CO)[C@H](c3ccccn3)C2)cn1 | -2.75 | -4.68 | -2.49 | -7.55 | -1.78
CCCn1c(=O)c2ccc(Cl)cc2n2c(=O)n(CC(=O)c3ccc(OC)cc3)nc12 | 0.043 | 0 | 6.9 | -1.93 | 2.64
S=C(S)N1CCCC1 | -45.9 | -0.701 | -3.66 | -10.7 | 2.18
CC1=C(C(=O)O[C@@H]2O[C@H](COC3OCC(O)C(O)C3O)[C@@H](O)[C@H](O)[C@H]2O)C(C)(C)CCC1 (stereo not given in full) | 0 | -12.5 | 10.8 | -41 | -6.57
CC1(C)CCC2(C(=O)OC3OCC(O)C(O)C3O)CCC3(C)C(=CCC4C5(C)CC(O)C(OC6OC(COC7OCC(O)C(O)C7O)C(O)C(O)C6O)C(C)(C)C5CCC43C)C2C1 (stereo not given) | 3.25 | 14.1 | 11 | -0.599 | 9.32
Cc1ccc(Cn2c(=O)c3ccccc3n3c(CCC(=O)N4CCN(c5ccccc5F)CC4)nnc23)cc1 | -1.22 | 0 | 9.12 | -10.1 | -3.3
Cc1nc(-c2cccc(Cl)c2)n(CC(=O)NCc2ccc(F)cc2)c(=O)c1CCO | -6.53 | -7.15 | -4.47 | -13.6 | 0.706
Cc1cc(C)cc(NC(=O)Cn2nc3n(CCc4ccccc4)c(=O)c4ccccc4n3c2=O)c1 | 7.17 | 2.99 | 9.38 | 3.8 | 6.24
CCOc1ccccc1CN1CCC(C)(c2noc(C3CCOCC3)n2)CC1 | -0.911 | -0.197 | -12.7 | -5.15 | -1.72
COc1cc(O)cc(O[C@@H]2O[C@H](CO)[C@@H](O[C@@H]3OC[C@](O)(CO)[C@H]3O)[C@H](O)[C@H]2O)c1OC | 3.62 | 8.63 | 3.21 | -4.94 | 7.79
CCc1ccc(CN2C(=O)c3cc(-c4ccccc4)nn3CC2(C)C(=O)NCCCOC)cc1 (stereo not given) | -5.21 | -0.869 | 4.24 | -1.33 | -1.5
Cc1c(Cl)cccc1N1C(=O)c2cc3occc3n2CC1(C)C(=O)NC1CCCCCCC1 (stereo not given) | 2.23 | 2.07 | 8.25 | 0.665 | 0.937
O=C(/C=C/c1ccc(O)c(O)c1)O[C@H]1[C@H](OC2CCCCC2O)O[C@H](CO)[C@@H](O)[C@@H]1O (stereo not given in full) | -10.8 | -38.9 | 0.054 | -43.7 | -2.42
